{"source": "PubChem BioAssay AID686978", "about": "(National Center for Advancing Translational Sciences (NCATS), 2013)", "note": "Where “and” joins values, the source holds several entries; their conditions need not be identical. Identical values can stand only once. Screen size: about 420,000 compounds; about 64,000 (15%) were called active. The shares of active, inactive and inconclusive entries below differ from those in the screen. Calls follow the shape of the dose curve; as a rule, active = well fitted inhibition curve with a large enough effect; inconclusive = small, poorly fitted or top-dose-only effect; inactive = flat fitted curve, though single readings scatter. Potencies of inconclusive entries are left out as doubtful fits. % is scaled to controls: 0 for no effect and ±100 for the full control effect; potency is read from the fitted curve at half-maximal effect; tags tell the direction and shape of the fitted curve.", "data": [{"assay": "qHTS for Inhibitors of human tyrosyl-DNA phosphodiesterase 1 (TDP1): qHTS in cells in absence of CPT; also: nearly all actives have a fitted effect of over 55% in size", "settings": "DT40 Tdp1-/- hTDP1 cells, no CPT, ATP luminescence, 48 h; activity change, negative = growth inhibition: at 46.2 µM (top of the series) unless noted", "method_in_brief": "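Luminescent ATP content (CellTiter-Glo) served as the growth readout. Knockout chicken DT40 cells expressing human TDP1 were exposed to compounds without camptothecin for a minimum 48 hr at 37 °C.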", "values": [{"smiles": "CCOC(=O)C1(C)CCN1C(=O)COc1ccc(C(C)(C)C)cc1", "note": "(configuration not stated)", "Potency": "active: 20.6 µM"}, {"smiles": "O=C(CSc1nc2ccccc2[nH]1)Nc1cc(C(F)(F)F)ccc1N1CCOCC1", "Potency": "inconclusive [inhibitor, partial curve]"}, {"smiles": "COc1cccc(NC(=S)NNC(=O)Cn2nc(C(F)F)cc2C(F)F)c1", "Potency": "inactive"}, {"smiles": "O=C(c1csnn1)N1CCC2(CC1)CCN(c1ccccc1)CC2", "Potency": "inconclusive [inhibitor, single point]"}, {"smiles": "Cc1nc(NC(C)C)c2cnn(CCc3ccccc3)c2n1", "Potency": "inconclusive [inhibitor, single point]"}, {"smiles": "Cc1cc(C)nc(-n2nc(C)c3c2N(Cc2ccccc2)C(=O)CC3c2ccc(Cl)cc2)n1", "note": "(configuration not stated)", "Potency": "inconclusive [inhibitor, single point]"}, {"smiles": "COc1cccc(NC(=O)/C=C/c2ccco2)c1", "Potency": "inconclusive [inhibitor, partial curve]"}, {"smiles": "CN1C(=O)/C(=C2\\SC(N3CCCCCC3)=NC2=O)c2ccccc21", "Potency": "inconclusive [inhibitor, single point]"}, {"smiles": "CN1CCN(S(=O)(=O)c2ccc(N(C)Cc3ccc(C(F)(F)F)cc3)c([N+](=O)[O-])c2)CC1", "Potency": "active: 13 µM"}, {"smiles": "COc1ccccc1N(C)S(=O)(=O)c1ccc(C(=O)NCc2ccc3c(c2)OCO3)cc1", "Potency": "active: 23.1 µM"}, {"smiles": "Cn1nc(C(C)(C)C)cc1C(=O)NCc1ccc2c(c1)OCO2", "Potency": "active: 1.84 µM"}, {"smiles": "CCCC(C)n1[nH]c(=O)cc1N", "note": "(configuration not stated)", "activity change, negative = growth inhibition": "inconclusive: -34.2% [inhibitor]"}, {"smiles": "C#Cc1ccc(NC(=O)C2(C)CCN2C(=O)C/C=C/c2ccccc2)cc1", "note": "(configuration not stated)", "Potency": "active: 9.2 µM"}, {"smiles": "CC1CCCCC1NS(=O)(=O)c1ccc2c(c1)CC(=O)N2C", "note": "(configuration not stated)", "Potency": "inconclusive [inhibitor, single point]"}, {"smiles": "C[C@H](CO)N1C[C@H](C)[C@@H](CN(C)S(=O)(=O)c2ccccc2)Oc2c(NC(=O)Cc3ccccc3)cccc2C1=O", "Potency": "inconclusive [inhibitor, single point]"}, {"smiles": "CC1(C(=O)N2Cc3ccccc3C2)CCN1C(=O)C1(c2ccccc2)CC1", "note": "(configuration not stated)", "Potency": "active: 20.6 µM"}, {"smiles": "CCC(C)[C@H](NC(=O)OC(C)(C)C)C(=O)N/N=C/C1=Cc2ccccc2OC1", "note": "(some centres not stated)", "Potency": "inconclusive [inhibitor, single point]"}, {"smiles": "COc1ccc(N(C(=O)c2ccncc2)S(=O)(=O)c2ccc3c4c(cccc24)C(=O)N3C)cc1", "Potency": "inconclusive [inhibitor, single point]"}, {"smiles": "CCN(CC)CCNC(=O)CCCCCn1c(=O)[nH]c2cc(C(=O)OC)ccc2c1=O", "Potency": "inactive"}, {"smiles": "Cc1ccc(S(=O)(=O)CC(=O)N2CCCCCC2)cc1", "Potency": "inactive"}, {"smiles": "COc1ccc(-c2nc3cnc(N4CCNCC4)nc3n(-c3ccccc3)c2=O)cc1", "Potency": "active: 14.6 µM"}, {"smiles": "O=C(O)C1CCN(S(=O)(=O)c2cccc3nsnc23)CC1", "Potency": "inactive"}, {"smiles": "CCCC(=O)N1CCC1(C)C(=O)NS(=O)(=O)c1ccccc1Cl", "note": "(configuration not stated)", "Potency": "inactive"}, {"smiles": "O=C1Nc2ccc([N+](=O)[O-])cc2OC1CCN1CCN(Cc2ccc3c(c2)OCO3)CC1", "note": "(configuration not stated)", "Potency": "inconclusive [inhibitor, single point]"}, {"smiles": "COc1ccc(Oc2nc(-c3ccccn3)nc3ccccc23)cc1", "Potency": "active: 4.11 µM"}, {"smiles": "CC(C)CCN(C(=O)c1csnn1)C(C(=O)NC1CCCC1)c1ccccc1", "note": "(configuration not stated)", "Potency": "inconclusive [inhibitor, single point]"}, {"smiles": "O=C(COC(=O)C1=COCCO1)NCc1ccc(Cl)cc1Cl", "Potency": "inactive"}, {"smiles": "O=C(N/N=C/c1c(F)cccc1Cl)C1CC1", "Potency": "inactive"}, {"smiles": "COc1ccc(NC(=O)CN2CCc3ccccc3C2)cc1", "activity change, negative = growth inhibition": "inconclusive: -35.6% [inhibitor]"}, {"smiles": "CS(=O)(=O)Nc1cccc(-c2cc(NC=O)c3ncc(-c4ccc(F)cc4)n3c2)c1", "Potency": "inconclusive [inhibitor, partial curve, poor fit]"}, {"smiles": "O=C(CCN=C1NS(=O)(=O)c2ccccc21)N1CCc2ccccc2C1", "Potency": "inactive"}, {"smiles": "Cc1ccc(NC(=O)CN(C)C(C)C(=O)Nc2ccc(S(=O)(=O)N3CCCC3)cc2)cc1", "note": "(configuration not stated)", "Potency": "active: 23.1 µM"}, {"smiles": "Cc1cc(C)cc(OCC(=O)Nc2c(C(=O)c3ccccc3)oc3ccccc23)c1", "Potency": "inactive"}, {"smiles": "Cc1sc2nc(SCCO)n(-c3ccccc3)c(=O)c2c1C", "Potency": "active: 13 µM"}, {"smiles": "CCOc1ccc(C(C(=O)NC2CCCCC2)N(CCOC)C(=O)c2snc(C(N)=O)c2N)cc1", "note": "(configuration not stated)", "Potency": "inactive"}, {"smiles": "N/C(=N\\OC(=O)N1c2ccccc2Sc2ccccc21)c1ccccc1", "Potency": "inconclusive [inhibitor, single point]"}, {"smiles": "CCCCC1=CC2=CC(=O)C(C)(OC(=O)CC)C(=O)C2=CN1Cc1ccccc1", "note": "(configuration not stated)", "Potency": "active: 18.4 µM"}, {"smiles": "COCCNC(=O)c1onc(CSc2cc(C)cc(C)c2)c1C(=O)NCCOC", "Potency": "inactive"}, {"smiles": "O=C(CSc1ccccn1)N1CCN(C(=O)CSc2ccccn2)CC1", "Potency": "inactive"}, {"smiles": "O=C(Nc1ccc2c(c1)OCCO2)c1ccc2nccnc2c1", "Potency": "inconclusive [inhibitor, single point]"}, {"smiles": "O=C(Nc1ccc(Br)cc1F)c1ccc2c(c1)N(Cc1ccccc1)C(=O)CS2=O", "note": "(configuration not stated)", "Potency": "active: 13 µM"}, {"smiles": "C[C@@H](NC(=O)/C(C#N)=C/c1ccc(O)c(O)c1)c1ccccc1", "Potency": "active: 23.7 µM and active: 12.6 µM"}, {"smiles": "CC(C)(C)c1nc2ccccc2c2nnc(SCC(=O)Nc3nc4ccccc4s3)n12", "Potency": "inconclusive [inhibitor, single point]"}, {"smiles": "CSc1nc2ccccc2cc1/C=C(\\C#N)c1ccc(Cl)c(Cl)c1", "Potency": "inconclusive [inhibitor, single point]"}, {"smiles": "CC1CCCC(NC(=O)Cn2cc(Br)ccc2=O)C1C", "note": "(configuration not stated)", "Potency": "inactive"}, {"smiles": "O=C(NCCCN1CCOCC1)c1ccccc1N1C(=O)[C@@H]2Cc3c([nH]c4ccccc34)C(c3ccc(F)cc3)N2C1=O", "note": "(some centres not stated)", "Potency": "active: 14.6 µM"}, {"smiles": "CC1CCCCC1NC(=O)c1cn(C)c2ccc(S(=O)(=O)N3CCCC3)cc2c1=O", "note": "(configuration not stated)", "Potency": "inconclusive [inhibitor, single point]"}, {"smiles": "CCCCOc1ccc(CSCCNC(=S)Nc2ccccc2)cc1", "Potency": "inconclusive [inhibitor, single point]"}, {"smiles": "CCCCCCCCCCCCSCCOCCO", "Potency": "inactive"}, {"smiles": "Cc1nn(-c2ccccc2)c(N2CCCC2)c1/C=N/O", "Potency": "inconclusive [inhibitor, partial curve, poor fit]"}, {"smiles": "O=C(CCCn1c(SCC(=O)c2ccc(F)cc2)nc2ccccc2c1=O)NCc1ccccc1", "Potency": "inconclusive [inhibitor, partial curve, poor fit]"}, {"smiles": "O=C(Oc1ccc2c3c(c(=O)oc2c1)CCCC3)c1ccco1", "Potency": "inconclusive [inhibitor, single point]"}, {"smiles": "COc1cccc(Oc2ccc(C(F)(F)F)cc2NC(=O)CCc2nc3ccccc3c(=O)[nH]2)c1", "Potency": "active: 18.4 µM"}, {"smiles": "COc1ccc(OC)c(CNc2ccc3c(c2)CCC3)c1", "Potency": "active: 16.4 µM"}, {"smiles": "C=CCNC(=S)Nc1sc2c(c1C(=O)OCC)CC(C(C)C)OC2", "note": "(configuration not stated)", "Potency": "inactive"}, {"smiles": "NC(=O)CC(NC(=O)c1cccc(Br)c1)c1ccc(N2CCCCCC2)c([N+](=O)[O-])c1", "note": "(configuration not stated)", "Potency": "active: 6.51 µM"}, {"smiles": "Cc1cc(C)c(NC(=S)N(CCCN2CCN(C)CC2)Cc2cccs2)c(C)c1", "Potency": "inconclusive [inhibitor, partial curve]"}, {"smiles": "O=C(NCCc1ccc(Cl)cc1)C1CCC(CNc2c(N3CCCCC3)c(=O)c2=O)CC1", "note": "(configuration not stated)", "Potency": "inconclusive [inhibitor, single point]"}, {"smiles": "Cc1sc2ncnc(OCc3nnc(-c4cccs4)o3)c2c1C", "Potency": "inconclusive [inhibitor, single point]"}, {"smiles": "CCCCCN=Cc1c(C)[nH]n(-c2nc3ccccc3s2)c1=O", "Potency": "active: 4.61 µM"}, {"smiles": "COc1ccc(/C=N/Nc2nc(-c3ccc(Cl)cc3)cc(C(F)(F)F)n2)c(OC)c1", "Potency": "inconclusive [inhibitor, single point]"}, {"smiles": "CCOc1cc(C2NC(=O)NC(C)=C2C(=O)OCc2ccccc2)ccc1O", "note": "(configuration not stated)", "Potency": "inconclusive [inhibitor, partial curve]"}, {"smiles": "COc1cc(-c2nnc(SCC(=O)c3cc(C)n(CC4CCCO4)c3C)o2)cc(OC)c1OC", "note": "(configuration not stated)", "Potency": "inconclusive [inhibitor, single point]"}, {"smiles": "Cc1c(C(=O)Nc2ccc(OC(F)(F)F)cc2)sc2nc3n(c(=O)c12)CCC3", "Potency": "inconclusive [inhibitor, single point]"}, {"smiles": "O=C(Nc1nc2cc3c(cc2s1)OCCO3)C1=COCCO1", "Potency": "inconclusive [inhibitor, single point]"}, {"smiles": "O=C(O)c1cc(-c2ccc(Cl)cc2)n(-c2ccccc2)n1", "Potency": "inconclusive [inhibitor, partial curve, poor fit]"}, {"smiles": "CC(=O)N1N=C(N)SC1(C)C", "Potency": "inactive"}, {"smiles": "Cc1ccc(-c2nc(SCC(=O)Nc3cc(S(=O)(=O)N4CCCCC4)ccc3Cl)n[nH]2)cc1", "Potency": "inconclusive [inhibitor, single point]"}, {"smiles": "CCOc1ccc(CNC(=O)C2CCCCN2S(=O)(=O)c2ccc(F)cc2)cc1OC", "note": "(configuration not stated)", "Potency": "inconclusive [inhibitor, single point]"}, {"smiles": "CNC(=S)N/N=C/c1ccco1", "Potency": "inconclusive [inhibitor, single point]"}, {"smiles": "c1cc2c3c(cccc3c1)-c1cnccc1-2", "Potency": "inactive"}, {"smiles": "C#CCOCCOCCOCCNc1nc(N2CCN(C(=O)[C@H](CCCCN)n3cc([C@@H](N)CC(C)C)nn3)CC2)nc(N2CCN(C(=O)[C@H](Cc3ccc(O)cc3)n3cc([C@@H](N)CC(C)C)nn3)CC2)n1", "Potency": "inactive"}]}]}
